# From PubChem BioAssay (Tox21)
# Values joined by “and” are separate entries in the source; they are usually repeats but may differ in a detail not shown here. Equal entries are not always repeated. The shares of active, inactive and inconclusive entries below differ from those in the screen. For some of these results: Potencies of inconclusive entries are doubtful fits and often do not repeat. More than one record can exist for a structure, and the calls need not agree. Active and inactive are the calls of the source. Unless noted, calls follow the shape of the dose curve; as a rule, active = well fitted curve in the direction sought with a large enough effect in the repeat runs; inconclusive = weak or mixed curves; inactive = no such curve, though single readings can be large; an effect the other way counts as inactive or inconclusive.
# Experiments:
# [1] = qHTS assay to identify small molecule antagonists of the estrogen related receptor signaling pathway with the pleiotropic PPARgamma coactivator (PGC) from Tox21 10K library (AID 1224841; call rule not given here; also: actives are mostly falling curves and most rising ones were filed inactive; nearly all actives have a fitted effect of over 50% in size)
# How it was run: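 Luminescence (One-Glo, 30 min at room temperature) after 18 h compound treatment at 37 C of PGC/ERR reporter cells plated at 2,000 cells/well and settled 6 h beforehand.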
# [2] = biological target: Thyrotropin receptor (Homo sapiens) (UniProt P16473); assay: qHTS assay to identify small molecule agonists of the thyroid stimulating hormone receptor (TSHR) signaling pathway (AID 1224843; calls by dose curve; also: nearly all actives have a fitted effect of over 45% in size); conditions: TSHR-HEK293 cells, cAMP HTRF, agonist mode, 30 min; activation: at 92.4 µM (top of the series) unless noted
# UniProt P16473, sequence (P16473 whole entry, looked up): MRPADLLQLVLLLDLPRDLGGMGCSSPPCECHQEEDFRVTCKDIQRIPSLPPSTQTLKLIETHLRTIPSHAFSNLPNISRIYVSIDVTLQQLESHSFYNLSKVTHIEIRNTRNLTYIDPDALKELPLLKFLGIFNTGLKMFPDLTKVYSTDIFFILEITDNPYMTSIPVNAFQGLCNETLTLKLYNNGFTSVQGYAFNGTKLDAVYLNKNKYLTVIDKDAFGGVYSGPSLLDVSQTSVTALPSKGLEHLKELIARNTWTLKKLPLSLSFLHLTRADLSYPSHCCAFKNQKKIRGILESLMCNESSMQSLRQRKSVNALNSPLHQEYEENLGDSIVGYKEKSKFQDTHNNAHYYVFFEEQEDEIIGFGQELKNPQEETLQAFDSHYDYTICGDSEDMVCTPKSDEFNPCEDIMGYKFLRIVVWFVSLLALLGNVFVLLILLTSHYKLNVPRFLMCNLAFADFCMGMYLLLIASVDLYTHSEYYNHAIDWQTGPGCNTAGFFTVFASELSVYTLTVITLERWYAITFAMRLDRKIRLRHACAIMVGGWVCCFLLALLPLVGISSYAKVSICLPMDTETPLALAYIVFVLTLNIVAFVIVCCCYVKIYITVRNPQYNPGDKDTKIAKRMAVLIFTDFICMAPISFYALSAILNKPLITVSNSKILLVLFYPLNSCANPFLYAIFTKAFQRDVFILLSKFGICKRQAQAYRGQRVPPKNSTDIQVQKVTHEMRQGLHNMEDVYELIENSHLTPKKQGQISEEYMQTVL
# How it was run: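 Agonist activity read as cAMP rise via d2/cryptate HTRF competition, 1 h room-temperature detection, in HEK293 cells expressing TSHR. Fifteen-point titrations, each run in triplicate, with a 30 min room-temperature incubation beforehand.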
# [3] = qHTS assay to identify small molecule agonists of H2AX (AID 1224845; active = well fitted activation curve with a large enough effect in the signal ratio in the repeat runs, not every such curve was filed as active; inconclusive = weak or mixed curves; the % refers to the signal ratio; as to activation (H2AX phosphorylation): % is scaled to controls: 0 for no effect and ±100 for the full control effect); conditions: CHO-K1 phospho-H2AX Ser139 HTRF, 3 h; activation (H2AX phosphorylation): at 154 µM (top of the series)
# How it was run: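 Phospho-H2AX Ser139 measured by HTRF (ex 320 nm; em 665 and 620 nm) after 24 hr antibody incubation. Compounds, 15 concentrations, 0.76% DMSO, were applied to CHO-K1 cells for 3hr at 37C before lysis.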
# [4] = qHTS assay to identify small molecule agonists of H2AX - cell viability counter screen (AID 1224847; calls by dose curve; also: nearly all actives have a fitted effect of over 30% in size)
# How it was run: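 Viability of CHO-K1 (wild type) cells after 3 hr compound exposure was measured by CellTiter-Glo luminescence.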
# [5] = qHTS assay to identify small molecule antagonists of the estrogen related receptor (ERR) signaling pathway from Tox21 library (AID 1224848); also: nearly all actives have a fitted effect of over 50% in size
# How it was run: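 Luciferase luminescence (ONE-Glo, 30 min room temperature) was the read-out. Cells of the NTP-supplied ERR line, 2,000 per well, were given 6 h at 37 C before compound addition in DMSO and 18 h exposure at 37 C.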
# [6] = A CellTox Green Cytotoxicity Assay to monitor cytotoxicity in HEK293 cells - 0 hour (AID 1224869); also: nearly all actives have a fitted effect of over 50% in size
# How it was run: (§1)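 Fluorescence from a DNA-binding dye excluded by viable cells was measured repeatedly in the same HEK293 wells (600 cells/well) during continuous compound exposure at 37 C. Each assay gives one read point: 0, 8, 16, 24, 32 or 40 h.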
# [7] = A CellTox Green Cytotoxicity Assay to monitor cytotoxicity in HEK293 cells - 40 hour (AID 1224871); also: nearly all actives have a fitted effect of over 45% in size
# How it was run: as §1
# [8] = qHTS RealTime-Glo MT Cell Viability Assay in HEK293 cells - 16 hour (AID 1224872); also: nearly all actives have a fitted effect of over 50% in size
# How it was run: (§2)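 Reads taken at 0, 8, 16, 24, 32 and 40 h from the same wells. HEK293 cells (600/well) carried RealTime-Glo reagents from seeding, with compound added after a 5 h settle at 37 C.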
# [9] = qHTS assay to identify small molecule antagonists of the estrogen related receptor signaling pathway with the pleiotropic PPARgamma coactivator (PGC) from Tox21 10K library - cell viability counter screen (AID 1224840; active = well fitted cell-killing curve with a large enough effect in the repeat runs, not every such curve was filed as active; inconclusive = weak or mixed curves, or effect the other way; inactive = no such curve, though single readings can be large or run the other way; also: nearly all actives have a fitted effect of over 40% in size)
# How it was run: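 Counter-screen for cytotoxicity: after 17.5 h compound exposure at 37 C, CellTiter-Fluor reagent added to PGC/ERR cells for 30 min and fluorescence read. Cells were seeded at 2,000 per well 6 h before dosing.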
# [10] = qHTS assay to identify small molecule agonists of the hypoxia (HIF-1) signaling pathway (AID 1224846; active = well fitted activation curve with a large enough effect in the signal ratio in the repeat runs, not every such curve was filed as active; inconclusive = weak or mixed curves; the % refers to the signal ratio); conditions: HRE-bla ME-180 cells, beta-lactamase ratio, 17 h; activation: at 76.8 µM (top of the series) unless noted
# How it was run: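 Compounds added to ME-180 cells carrying hypoxia-response-element beta-lactamase reporter (0.5% dialyzed FBS, 5 h preplating), 17 h at 37C; agonist activity detected by CCF4-AM B/G FRET read-out.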
# [11] = qHTS RealTime-Glo MT Cell Viability Assay in HepG2 cells - 8 hour (AID 1224873); also: nearly all actives have a fitted effect of over 55% in size
# How it was run: (§3)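 Real-time viability: cells seeded at 600 per well together with NanoLuc and cell-permeant prosubstrate, compounds added after 5 h incubation. Luminescence tracked at 0, 8, 16, 24, 32 and 40 h of exposure.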
# [12] = qHTS RealTime-Glo MT Cell Viability Assay in HEK293 cells - 40 hour (AID 1224874); conditions: RealTime-Glo luminescence; max response: stronger effect = lower value; also: nearly all actives have a fitted effect of over 50% in size
# How it was run: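 Luminescence, which tracks viable cell number through reduction of the prosubstrate to a NanoLuc substrate, was read over continuous 37 C culture. Cells (600/well) were premixed with reagent and rested 5 h before 23 nL of compound in DMSO was pinned.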
# [13] = qHTS RealTime-Glo MT Cell Viability Assay in HEK293 cells - 32 hour (AID 1224868); also: nearly all actives have a fitted effect of over 50% in size
# How it was run: as §2
# [14] = qHTS RealTime-Glo MT Cell Viability Assay in HepG2 cells - 24 hour (AID 1224867); also: nearly all actives have a fitted effect of over 50% in size
# How it was run: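 HepG2 suspension premixed with RealTime-Glo reagents is plated at 600 cells per well and left 5 h at 37 C/5% CO2. Compounds in DMSO then go in, and bioluminescence reflecting viable cell number is recorded over 40 h.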
# [15] = qHTS RealTime-Glo MT Cell Viability Assay in HepG2 cells - 40 hour (AID 1224870); also: nearly all actives have a fitted effect of over 50% in size
# How it was run: as §3
# [16] = qHTS assay to identify small molecule agonists of the hypoxia (HIF-1) signaling pathway - cell viability counter screen (AID 1224844; calls by dose curve; also: nearly all actives have a fitted effect of over 50% in size)
# How it was run: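 Cytotoxicity measured by CellTiter-Glo ATP luminescence in the wells also read for beta-lactamase signal. Cells were HRE-bla ME-180 (2,000/well, 0.5% dialyzed FBS), exposed to compounds for 17 h at 37C.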
# Potency is read from the fitted curve at half-maximal effect; tags tell the direction and shape of the fitted curve or compound fluorescence and quenching.
smiles,measurement,setting,value
O=[N+]([O-])c1c(Cl)c(Cl)cc(Cl)c1Cl,Potency,[1],"inconclusive: 0.686 µM [falling, single point]"
same,Potency,[2],"inconclusive: 54.5 µM [inhibitor, partial curve]"
same,Potency,[3],inconclusive: 113 µM [activator]
same,Potency,[4],"inconclusive: 1.79 µM [rising, single point]"
same,Potency,[5],inactive
same,Potency,[6],"inconclusive: 54.9 µM [activator, partial curve, poor fit]"
same,Potency,[7],active: 49 µM
same,Potency,[8],inactive
C=CC(=O)OCC(COC(=O)C=C)(COC(=O)C=C)COC(=O)C=C,Potency,[9],active: 5.45 µM
same,Potency,[2],active: 8.63 µM
same,Potency,[3],"inconclusive: 11.3 µM [activator, single point]"
same,Potency,[10],"inconclusive: 9.77 µM [falling, full curve]"
same,Potency,[4],"inconclusive: 16 µM [rising, full curve]"
same,Potency,[5],active: 13.7 µM
same,Potency,[7],active: 19.5 µM
same,Potency,[11],active: 3.09 µM
same,Potency,[12],active: 3.89 µM
CCC(C)c1cccc(C(C)CC)c1O (stereo unspecified),Potency,[9],"inconclusive: 15.4 µM [cytotoxic, full curve]"
same,Potency,[2],"inconclusive: 38.6 µM [activator, partial curve, poor fit]"
same,Potency,[10],"inconclusive: 54.9 µM [falling, single point]"
same,Potency,[4],active: 35.7 µM
same,Potency,[13],inactive
FC(F)C(F)(F)OCC(Cn1cncn1)c1ccc(Cl)cc1Cl (stereo unspecified),Potency,[9],active: 60.8 µM
same,Potency,[2],"inconclusive: 48.3 µM [activator, partial curve]"
same,Potency,[4],active: 112 µM
same,Potency,[14],"inconclusive: 48.7 µM [falling, partial curve]"
same,Potency,[13],active: 21.7 µM
same,Potency,[15],"inconclusive: 48.7 µM [falling, single point]"
same,Potency,[7],"inconclusive: 54.6 µM [activator, single point]"
same,Potency,[12],active: 21.7 µM
CCCOCC(=Nc1ccc(Cl)cc1C(F)(F)F)n1ccnc1,Potency,[9],"inconclusive: 61.1 µM [cytotoxic, partial curve]"
same,Potency,[2],active: 54.4 µM
same,Potency,[6],"inconclusive: 48.9 µM [activator, single point]"
same,Potency,[15],"inconclusive: 54.9 µM [falling, partial curve, poor fit]"
same,Potency,[11],"inconclusive: 38.9 µM [falling, partial curve]"
CCCCCCCCCCn1cc[n+](C)c1,Potency,[9],"inconclusive: 4.37 µM [cytotoxic, full curve]"
same,activation (H2AX phosphorylation),[3],inconclusive: 10.2%
same,Potency,[13],"inconclusive: 0.176 µM [cytotoxic, full curve]"
same,Potency,[15],"inconclusive: 55.5 µM [falling, partial curve, poor fit]"
same,Potency,[7],"inconclusive: 2.21 µM [activator, partial curve]"
Oc1ccc(C2(c3ccc(O)cc3)CCCCC2)cc1,Potency,[9],"inconclusive: 41 µM [cytotoxic, partial curve]"
same,Potency,[16],active: 52.1 µM
same,Potency,[10],inconclusive: 52.1 µM
same,Potency,[4],active: 95.4 µM
same,Potency,[7],"inconclusive: 52.1 µM [activator, single point]"
same,Potency,[8],"inconclusive: 52.1 µM [cytotoxic, single point]"
O=C/C(Cl)=C(/Cl)C(=O)O,Potency,[9],"inconclusive: 68.5 µM [cytotoxic, single point]"
same,Potency,[10],"inconclusive: 43.6 µM [falling, partial curve] and inconclusive: 49 µM [falling, partial curve]"
same,Potency,[5],"inconclusive: 76.9 µM [inhibitor, single point]"
same,Potency,[7],"inconclusive: 61.6 µM [activator, single point]"
same,Potency,[8],"inconclusive: 19.5 µM [rising, single point]"
same,Potency,[12],"inconclusive: 19.5 µM [rising, single point]"
[O]=[Cr](=[O])([OH])[O][Cr](=[O])(=[O])[OH],Potency,[9],"inconclusive: 6.17 µM [cytotoxic, full curve]"
same,Potency,[16],active: 2.78 µM and active: 12.3 µM
same,Potency,[10],"inconclusive: 27.8 µM [falling, partial curve] and inconclusive: 54.8 µM [falling, partial curve]"
same,Potency,[4],"active: 90.6 µM and inconclusive: 113 µM [cytotoxic, partial curve]"
same,Potency,[14],"inconclusive: 24.8 µM [falling, partial curve] and inconclusive: 21.8 µM [falling, partial curve]"
same,Potency,[13],active: 4.41 µM and active: 4.36 µM
same,Potency,[15],"inconclusive: 22.1 µM [falling, partial curve] and inconclusive: 21.8 µM [falling, partial curve]"
same,Potency,[11],"inconclusive: 44.1 µM [falling, partial curve, poor fit]"
same,Potency,[12],active: 3.5 µM and active: 2.18 µM
